# According to publication PMC6919601, “Identification of Plasmodium dipeptidyl aminopeptidase allosteric inhibitors by high throughput screening” (PLoS ONE, 2019):
# Among all 110,000 compounds or so, about 230 (0.21%) showed an effect of 50% or more. This is one part of the list.
# Target: DPAP1 (Plasmodium falciparum, UniProt Q8IIJ9)
# Assay: primary screen, percent inhibition; read by cleavage of a fluorogenic dipeptide substrate; higher = more effect of the substance
# Set-up: species or system P. falciparum D10 trophozoite lysates; single well
# 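Also: 30 min substrate incubation versus DMSO and 10 µM JCP410 controls.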
# DPAP1, sequence (Q8IIJ9 whole entry, looked up): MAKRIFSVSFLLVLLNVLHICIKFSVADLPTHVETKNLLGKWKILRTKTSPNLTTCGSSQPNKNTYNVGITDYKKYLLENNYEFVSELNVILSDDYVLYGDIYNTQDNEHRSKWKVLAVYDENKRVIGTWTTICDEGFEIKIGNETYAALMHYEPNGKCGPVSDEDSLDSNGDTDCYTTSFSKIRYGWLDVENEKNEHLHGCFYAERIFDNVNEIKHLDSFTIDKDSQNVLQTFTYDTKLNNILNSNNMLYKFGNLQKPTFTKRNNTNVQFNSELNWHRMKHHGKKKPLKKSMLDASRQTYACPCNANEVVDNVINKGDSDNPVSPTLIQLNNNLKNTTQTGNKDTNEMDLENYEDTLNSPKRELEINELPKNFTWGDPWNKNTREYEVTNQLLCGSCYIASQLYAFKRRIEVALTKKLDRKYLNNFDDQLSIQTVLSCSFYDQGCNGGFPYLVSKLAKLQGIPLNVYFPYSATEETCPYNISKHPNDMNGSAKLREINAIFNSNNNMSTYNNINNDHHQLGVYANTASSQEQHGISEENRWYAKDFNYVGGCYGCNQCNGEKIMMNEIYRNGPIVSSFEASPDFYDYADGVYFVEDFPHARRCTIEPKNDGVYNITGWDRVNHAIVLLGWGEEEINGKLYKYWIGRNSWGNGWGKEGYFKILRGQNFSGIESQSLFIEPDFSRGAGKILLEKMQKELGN
row,SMILES,% Inhibition @ 10 uM
1,CCCCNc1oc(/C=C/c2ccc(OCC)cc2)nc1C#N,5.68%
2,COC(=O)c1c2[nH]c3ccccc3sc-2cc(=O)c1=N,3.65%
3,Cc1ccc(-c2nc(NC(=O)CSc3n[nH]c(N)n3)ns2)cc1,-1.11%
4,CC1(C)Cc2c(sc(NC(=O)C3CC(Cl)=CCC3C(=O)O)c2C#N)CO1 (centres unmarked),4%
5,COc1ccc(S(=O)(=O)N2CCN(Cc3cccc(OC)c3)CC2)cc1,8.09%
6,COC(=O)C(=O)/C=C(O)/C=C/c1ccccc1,1.58%
7,CC[n+]1c(S(=O)(=O)O)ccc2cccc(C)c21,3.25%
8,Cc1c2cnn(CC(=O)NCCC3=CCCCC3)c(=O)c2c(C)n1Cc1cccc(Cl)c1,-3.96%
9,Cc1nc2ccc(S(=O)(=O)NCC(=O)NCCC3=CCCCC3)cc2s1,4.14%
10,CC(C)N1CCN(c2ccncc2S(=O)(=O)N2CCOCC2)CC1,2.49%
11,CNC(=O)c1ccc([N+](=O)[O-])cc1Cl,-4.4%
12,CN1CCN(C(=O)c2ccc(-n3ccc4ccccc43)s2)CC1,-3.39%
13,O=C(Nc1ccc(NC(=O)c2cccc3ccccc23)cc1)c1ccco1,2.09%
14,COc1cc(OC)cc(C(=O)Nc2ccc(N3CCOCC3)c(Cl)c2)c1,0.214%
15,Cc1c(/C=N/n2cncn2)c(O)n2c(nc3ccccc32)c1C#N,0.736%
16,CS(=O)(=O)N(CC(=O)N1CCCCC1)Cc1ccccc1,-3.71%
17,Nc1c(C(=O)c2ccc(Cl)cc2)sc2nc3c(cc12)CCC3,-0.261%
18,CN1C(=O)C(=Cc2coc3ccccc3c2=O)C(=O)N(C)C1=O,-2.19%
19,CC1(C)CC(=O)C(/C=N/C2CCCCCC2)=C(O)C1,-0.996%
20,CCCOc1ccc(C(=O)c2nc3c(n2O)CCCC3)cc1,1.74%
21,Cc1cc(C)c(S(=O)(=O)n2nc(C)c(Sc3ccccc3)c2C)c(C)c1,-4.08%
22,Cc1ccc(C)c(OCC(=O)N2CCN(C(=O)COc3cc(C)ccc3C)CC2)c1,-5.92%
23,Cn1c2ccccc2c2cnn(CC(=O)N3CCN(c4ccccn4)CC3)c(=O)c21,4.53%
24,O=C(OCc1ccccc1)Sc1nc2ccccc2o1,1.67%
25,O=C(Nc1ccc(Cl)cc1C(=O)NCCN1CCOCC1)c1ccco1,16.8%
26,O=S(=O)(c1ccc(Oc2ccccc2)cc1)N1CCSC1,-1.86%

row,SMILES,% Inhibition @ 10 uM
1,COc1ccc(C(=O)NC(c2c(C)nn(-c3ccccc3)c2O)(C(F)(F)F)C(F)(F)F)cc1,1.89%
2,Cc1ccc(C)c(CN2CCCCC2c2cccnc2)c1 (centres unmarked),-1.5%
3,COc1ccc(CCNCc2c(C(=O)O)n(Cc3ccccc3)c3ccccc23)c(OC)c1OC,3.54%
4,CC1CC(=O)C2=C(C1)OC(N)=C(C#N)C2c1ccccc1 (centres unmarked),-5.57%
5,CCc1cc2c(cc3c(=O)n(CC(=O)NCc4ccccn4)nc(CC)n32)s1,-1.7%
6,CCOCCCNc1c2c(c(C#N)c3nc4ccccc4n13)CCC2,4.08%
7,CCN1CCN(c2cc(SC)nc(-c3ccccc3)n2)CC1,-1.6%
8,COc1ccc(-c2cc(-c3ccccc3)nc(N3CCCCC3)n2)cc1,-1.5%
9,N=C(NOC(=O)c1ccc2c(c1)OCO2)c1ccccn1,2.95%
10,COc1ccc(CNC(=O)c2nnn(Cc3ccc(C(C)C)cc3)c2N)cc1,1.26%
11,CN(C)CCCN(CCCN(C)C)Cc1cc(Br)cs1,-6.62%
12,CC(C)N(CCCNC(=O)Cn1ncn2cccc2c1=O)Cc1ccccc1,-8.41%
13,Cc1cc(Cl)ccc1OCCCC(=O)N1CCc2ccccc21,2.4%
14,CCOc1cc(CN(C)C2CCN(C)CC2)ccc1O,0.847%
15,CCOC(=O)c1cnc(N2CCCCC2)nc1O,6.31%
16,CCC(=O)N1N=C(c2ccccc2)CC1c1cc2cc3c(cc2nc1Cl)OCCO3 (centres unmarked),0.884%
17,CC12CC3CC(C)(C1)CC(C(=O)NO)(C3)C2,-0.239%
18,CCOc1ccccc1N1CCN(C(=O)C(F)(F)F)CC1,-9.94%
19,CC(=O)n1c2ccccc2c2cc([N+](=O)[O-])ccc21,1.83%
20,CN1CCC(N2CCCC(CO)C2)CC1 (centres unmarked),-3.6%
21,CC(=O)c1nnn(-c2ccnc(-c3ccc(Br)cc3)n2)c1C,2.55%
22,CC(C)OCCCN1C(=O)c2[nH]nc(-c3ccccc3O)c2C1c1cccc(O)c1 (centres unmarked),-1.35%
23,Cc1ccc(/N=c2/sc3ccccc3n2C)cc1,-7.01%
24,COC1C=CC(CNC(=O)c2sc3nc(-c4ccccc4)cn3c2C)(OC)O1 (centres unmarked),-0.138%
25,CC(c1ccccc1)c1nnc(NC(=O)c2ccc(Cl)cc2)s1 (centres unmarked),-3.78%
26,Cc1coc2c1c(C)cc1oc(=O)c(CC(=O)NCCc3ccccc3F)c(C)c12,0.895%

row,SMILES,% Inhibition @ 10 uM
1,CCOc1ccc(-c2nonc2NC(=O)C(C)C)cc1,-1.33%
2,CC(C)N(C(=O)Cn1cc(S(=O)(=O)Cc2ccc(F)cc2)c2ccccc21)C(C)C,-0.861%
3,CCC1(CC)C(=O)NC(=O)N=C1SC,0.266%
4,O=C1OC(c2ccc(Cl)c(Cl)c2)=N/C1=C\c1cccc(F)c1,-2.6%
5,CCCOc1ccc(C2c3c(-c4ccccc4O)n[nH]c3C(=O)N2CC2CCCO2)cc1 (centres unmarked),-1.35%
6,CCOC(=O)c1cc2sccc2n1CCC(=O)O,-2.84%
7,Cc1cc(/C=C2/NC(=O)NC2=O)c(C)n1-c1ccc(C23CC4CC(CC(C4)C2)C3)cc1,-3.75%
8,O=C1Nc2ccccc2C12OCC1(CO2)COC2(OC1)C(=O)Nc1ccccc12 (centres unmarked),-2.54%
9,COc1cc(/C=C(\C#N)c2nnc3n2CCCCC3)cc(OC)c1OC,18.3%
10,O=S(=O)(c1ccccc1)n1nc(-c2ccc(Cl)cc2)nc1NCc1ccco1,-6.71%
11,COc1ccc(NC(=O)C2=C(C)Nc3nc(CCCO)nn3C2c2ccc(Cl)c(Cl)c2)cc1 (centres unmarked),-7.19%
12,Cc1cc(C)c(S(=O)(=O)N2CCC(C(N)=O)CC2)cc1C,-6.43%
13,COc1ccccc1C(=O)Nc1nc2ccc(C)cc2s1,1.41%
14,CC1=CC(=O)OC1Cc1ccc2ccccc2n1 (centres unmarked),-1.54%
15,O=[N+]([O-])c1ccc(CN2CCN(c3ccc(Cl)cc3)CC2)cc1,-0.127%
16,CCCOc1ccc2oc(=O)c3c(c2c1)CCCN3C(=O)CN1CCN(Cc2ccccc2)CC1,9.89%
17,Cc1ccccc1C(=O)N1CCN(c2cccc(Cl)c2)CC1,4.03%
18,CN(C)CCN(C)C1CC2CCC1C2 (centres unmarked),4.74%
19,O=c1c2c(nc3n1CCS3)-c1ccccc1CC21CCCCC1,-3.38%
20,COCCNC(C)C(=O)C12CC3CC(CC(C3)C1)C2 (centres unmarked),-2.91%
21,Cc1[nH]c2ccccc2c1CCN1C(=O)C2C3C=CC(C3)C2C1=O (centres unmarked),5.12%
22,CCOC(=O)c1cnc2nc(NCc3ccc(F)cc3)nn2c1O,-4.19%
23,CC(=O)N1CC(c2ccccc2)C(c2ccc(Cl)cc2)=N1 (centres unmarked),-2.32%
24,CCN1C(=O)c2cccc3c(NC(=O)c4ccccc4C)ccc1c23,-3.93%
25,COc1ccccc1/C=C/C=C1\N=C(c2ccc(Br)cc2)OC1=O,-1.87%
26,O=C(NCc1ccc(Cl)cc1)c1ccc(Cn2c(=O)[nH]c3ccsc3c2=O)cc1,-0.972%

row,SMILES,% Inhibition @ 10 uM
1,c1ccc(CN2CCN(Cc3csc(-c4ccccc4)n3)CC2)cc1,0.98%
2,CC1=C(CCN2CCc3c([nH]c4ccccc34)C2)C(C)(C)CCC1,-3.15%
3,CCC(C)(C)C(=O)Nc1cccc(NC(C)=O)c1,1.29%
4,CC1=C(C(=O)OC2CCCCCCC2)C(c2ccccc2Cl)NC(=O)N1 (centres unmarked),2.78%
5,CC(=O)Nc1ccc(-c2cc(-c3ccc(NC(C)=O)cc3)nc(-c3ccc(Br)cc3)n2)cc1,5.64%
6,Cc1c(C)n(C(=O)CSc2nnc(-c3ccccc3)o2)c2ccccc12,0.343%
7,CN(Cc1ccccc1)S(=O)(=O)c1ccc(NC(=O)c2ccc(F)cc2)cc1,-14.6%
8,Cc1ccc(OCC(=O)Nc2cc(C)c(C)cc2O)cc1,-1.61%
9,Cc1cc(CCN2CCC(=O)NC2=O)ccc1OC(C)C,5.93%
10,CC(C)=C1C2CCC1C(C(=O)Nc1cc(C)cc(C)c1)C2C(=O)O (centres unmarked),-2.53%
11,O=C(CN(c1cccc(C(F)(F)F)c1)S(=O)(=O)c1ccccc1)N1CCc2ccccc2C1,-3.28%
12,CCN(CC)c1nc2c(s1)C(=O)CC(C)(C)C2,-4.93%
13,CC(=O)c1cccc(NC(=O)c2ccoc2C)c1,1.28%
14,CC(C)(C)S(=O)(=O)c1ccc(C(=O)O)s1,1.8%
15,COc1ccc(C2=NN(C(C)=O)C(c3cccc(OC)c3OC)C2)cc1OC (centres unmarked),-7.45%
16,CCN(CC)c1ccc(/C=C2/C(=O)N(c3ccccc3)C(=S)N(c3cccc4ccccc34)C2=O)cc1,5.68%
17,CCC1CCc2c(sc(NC(=O)Cc3ccc(Cl)cc3)c2C(N)=O)C1 (centres unmarked),-2.76%
18,CC(=O)C(C)n1c(CN2CC(C)OC(C)C2)nc2c1c(=O)[nH]c(=O)n2C (centres unmarked),3.4%
19,COc1ccc(C2CC(=O)Nc3c2ccc2ccccc32)c(OC)c1OC (centres unmarked),0.475%
20,Cc1cc(=O)n2nc(N3CCC(C(=O)N4CCN(C)CC4)CC3)sc2n1,1.38%
21,CCN(CC)C(=O)Cn1cc(SCC(=O)NC2CCCCC2)c2ccccc21,-0.826%
22,Cc1ccccc1-c1n[nH]c(SCc2cc(=O)n3ccsc3n2)n1,2.29%
23,COC(=O)c1ccc(COc2ccc(OC)cc2)cc1,-5.47%
